According to article PMC9911399, “Two distinct binding modes provide the RNA-binding protein RbFox with extraordinary sequence specificity”:
Substitutions are numbered along the chain they refer to; changes in the protein carry UniProt numbers. The list shows a part of the results.

T1: RBFOX1 RRM (Homo sapiens, UniProt Q9NWB1 109-208)
T1 sequence: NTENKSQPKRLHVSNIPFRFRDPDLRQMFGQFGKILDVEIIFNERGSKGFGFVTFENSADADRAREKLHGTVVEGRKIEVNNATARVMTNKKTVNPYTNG

B1: AAGGGUG (DNA:RNA)
RNA: GGGAGACCGGAAUUCAGAUUGUCCAAGGGUGUUAAAUCCCGUCGUAGCCACCA
DNA 1: CAATCTGAATTCCGGTCTCCC
DNA 2: TGGTGGCTACGACGGGATT
B2: UCGAUGA (DNA:RNA)
RNA: B1 RNA with A25U, A26C, G28A, G29U, U30G, G31A
DNA 1: CAATCTGAATTCCGGTCTCCC
DNA 2: TGGTGGCTACGACGGGATT
B3: CUGGACA (DNA:RNA)
RNA: B1 RNA with A25C, A26U, G29A, U30C, G31A
DNA 1: CAATCTGAATTCCGGTCTCCC
DNA 2: TGGTGGCTACGACGGGATT
B4: UCUUUCG (DNA:RNA)
RNA: B1 RNA with A25U, A26C, G27U, G28U, G29U, U30C
DNA 1: CAATCTGAATTCCGGTCTCCC
DNA 2: TGGTGGCTACGACGGGATT
B5: UACGGGA (DNA:RNA)
RNA: B1 RNA with A25U, G27C, U30G, G31A
DNA 1: CAATCTGAATTCCGGTCTCCC
DNA 2: TGGTGGCTACGACGGGATT
B6: CGUGUUA (DNA:RNA)
RNA: B1 RNA with A25C, A26G, G27U, G29U, G31A
DNA 1: CAATCTGAATTCCGGTCTCCC
DNA 2: TGGTGGCTACGACGGGATT
B7: AAUAUAU (DNA:RNA)
RNA: B1 RNA with G27U, G28A, G29U, U30A, G31U
DNA 1: CAATCTGAATTCCGGTCTCCC
DNA 2: TGGTGGCTACGACGGGATT
B8: AGGCCGG (DNA:RNA)
RNA: B1 RNA with A26G, G28C, G29C, U30G
DNA 1: CAATCTGAATTCCGGTCTCCC
DNA 2: TGGTGGCTACGACGGGATT
B9: UGCUAAG (DNA:RNA)
RNA: B1 RNA with A25U, A26G, G27C, G28U, G29A, U30A
DNA 1: CAATCTGAATTCCGGTCTCCC
DNA 2: TGGTGGCTACGACGGGATT
B10: CCUCACC (DNA:RNA)
RNA: GGGAGACCGGAAUUCAGAUUGUCCCCUCACCUUAAAUCCCGUCGUAGCCACCA
DNA 1: CAATCTGAATTCCGGTCTCCC
DNA 2: TGGTGGCTACGACGGGATT
B11: AUAGUGC (DNA:RNA)
RNA: B1 RNA with A26U, G27A, G29U, U30G, G31C
DNA 1: CAATCTGAATTCCGGTCTCCC
DNA 2: TGGTGGCTACGACGGGATT
B12: GUGCGGA (DNA:RNA)
RNA: B1 RNA with A25G, A26U, G28C, U30G, G31A
DNA 1: CAATCTGAATTCCGGTCTCCC
DNA 2: TGGTGGCTACGACGGGATT
B13: CGUAAAU (DNA:RNA)
RNA: B10 RNA with C26G, C28A, C30A, C31U
DNA 1: CAATCTGAATTCCGGTCTCCC
DNA 2: TGGTGGCTACGACGGGATT
B14: UACUGUU (DNA:RNA)
RNA: B1 RNA with A25U, G27C, G28U, G31U
DNA 1: CAATCTGAATTCCGGTCTCCC
DNA 2: TGGTGGCTACGACGGGATT
B15: UUAUAAU (DNA:RNA)
RNA: B10 RNA with C25U, C26U, U27A, C28U, C30A, C31U
DNA 1: CAATCTGAATTCCGGTCTCCC
DNA 2: TGGTGGCTACGACGGGATT
B16: GCUCCCG (DNA:RNA)
RNA: B10 RNA with C25G, A29C, C31G
DNA 1: CAATCTGAATTCCGGTCTCCC
DNA 2: TGGTGGCTACGACGGGATT
B17: CGACUCU (DNA:RNA)
RNA: B10 RNA with C26G, U27A, A29U, C31U
DNA 1: CAATCTGAATTCCGGTCTCCC
DNA 2: TGGTGGCTACGACGGGATT
B18: CCGAGCC (DNA:RNA)
RNA: B10 RNA with U27G, C28A, A29G
DNA 1: CAATCTGAATTCCGGTCTCCC
DNA 2: TGGTGGCTACGACGGGATT
B19: GCCAUCU (DNA:RNA)
RNA: B10 RNA with C25G, U27C, C28A, A29U, C31U
DNA 1: CAATCTGAATTCCGGTCTCCC
DNA 2: TGGTGGCTACGACGGGATT
B20: UCCUCAG (DNA:RNA)
RNA: B1 RNA with A25U, A26C, G27C, G28U, G29C, U30A
DNA 1: CAATCTGAATTCCGGTCTCCC
DNA 2: TGGTGGCTACGACGGGATT

target: T1, RBFOX1 RRM; test: EMSA; HiTS-Eq, 1 nM pool, 10 min; buffer printed only for the single-RNA assays: 10 mM Tris pH 7.5, 150 mM NaCl, 3.4 mM EDTA, 0.001% NP-40, 30 C; settings: tags: His6 N-terminal (pET28a); label: 5' 32P
Summary of the method: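 Relative association constants, normalised to the cognate motif, were derived by comparing read counts of each RNA species with those of the control reaction. The RNA sequenced was the free fraction, separated by 8% native PAGE after a 10 min equilibration in 50 µL of 1 nM 5′-radiolabelled RNA (7 randomized nucleotides) with increasing concentrations of purified wild-type or mutant RbFox RRM.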

| Binder | binding signal |
| --- | --- |
| B1 | 0.0144 KA relative to UGCAUGU |
| B2 | 0.0175 KA relative to UGCAUGU |
| B3 | 0.00752 KA relative to UGCAUGU |
| B4 | 0.0189 KA relative to UGCAUGU |
| B5 | 0.00295 KA relative to UGCAUGU |
| B6 | 0.0105 KA relative to UGCAUGU |
| B7 | 0.00146 KA relative to UGCAUGU |
| B8 | 0.00957 KA relative to UGCAUGU |
| B9 | 0.0227 KA relative to UGCAUGU |
| B10 | 0.0031 KA relative to UGCAUGU |
| B11 | 0.0118 KA relative to UGCAUGU |
| B12 | 0.016 KA relative to UGCAUGU |
| B13 | 0.0013 KA relative to UGCAUGU |
| B14 | 0.0139 KA relative to UGCAUGU |
| B15 | 0.00452 KA relative to UGCAUGU |
| B16 | 0.00379 KA relative to UGCAUGU |
| B17 | 0.00984 KA relative to UGCAUGU |
| B18 | 0.00658 KA relative to UGCAUGU |
| B19 | 0.00498 KA relative to UGCAUGU |
| B20 | 0.0155 KA relative to UGCAUGU |
